Hit rate of the full screen: of about 45,000 compounds, about 65 (0.1%) were called active. Calls follow the shape of the dose curve; as a rule, active = well fitted activation curve with a large enough effect; inconclusive = small, poorly fitted or top-dose-only effect; inactive = no such curve, though single readings can be large or run the other way. This is one part of the list.
Biological target: Galactocerebrosidase (Homo sapiens) (UniProt P54803)
Experiment: A Novel Cell-Based Assay to Identify Small Molecules for B -Galactocerebrosidase; also: 0% is about no effect; nearly all actives have a fitted effect of over 65% in size
Settings: 145M-Twi-hGALC-G270D cells, HMU-beta-Gal fluorescence, 48 h; series mostly up to 57.5 µM; activation: at the top concentration
Procedure, shortened: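 qHTS, 1536-well; 145M-Twi-hGALC-G270D cells (WT line also made) in DMEM/F12 + 10% FBS; compound incubation on live cells; HMU-β-gal 0.1 mM final, pH 5.2, NaTC; carbonate stop; fluorescence increase = enhanced residual activity.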

UniProt P54803, sequence (P54803 whole entry, looked up): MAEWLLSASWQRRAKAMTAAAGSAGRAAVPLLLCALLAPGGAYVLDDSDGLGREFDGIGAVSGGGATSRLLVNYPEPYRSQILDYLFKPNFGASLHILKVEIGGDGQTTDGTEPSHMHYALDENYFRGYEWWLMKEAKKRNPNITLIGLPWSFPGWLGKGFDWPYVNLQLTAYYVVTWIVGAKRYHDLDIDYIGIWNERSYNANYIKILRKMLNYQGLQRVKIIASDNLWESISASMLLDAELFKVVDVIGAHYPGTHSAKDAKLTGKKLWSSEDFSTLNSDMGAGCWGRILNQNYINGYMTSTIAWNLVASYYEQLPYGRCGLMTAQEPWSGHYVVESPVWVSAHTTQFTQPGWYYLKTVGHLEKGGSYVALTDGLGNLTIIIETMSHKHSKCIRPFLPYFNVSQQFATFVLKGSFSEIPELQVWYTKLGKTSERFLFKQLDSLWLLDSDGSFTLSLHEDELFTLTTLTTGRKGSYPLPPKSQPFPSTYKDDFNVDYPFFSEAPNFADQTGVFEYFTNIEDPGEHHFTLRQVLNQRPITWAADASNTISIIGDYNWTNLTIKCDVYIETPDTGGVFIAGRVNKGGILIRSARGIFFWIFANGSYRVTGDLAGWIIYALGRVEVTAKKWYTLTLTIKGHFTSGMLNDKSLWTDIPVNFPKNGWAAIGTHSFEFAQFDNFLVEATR

activation, inactive:
CNc1ncnc2c1cnn2-c1ccc(C)c(C)c1 -17.5%
COc1cc(NC(=O)c2cccc3c2C(=O)N(C2CCCCC2)C3)cc(OC)c1OC -18.3%
Oc1ccccc1-c1nc(/C=C/c2ccccc2Cl)nn1-c1ccccc1 -30.1%
Fc1ccc([C@@H]2CCNC[C@H]2COc2ccc3c(c2)OCO3)cc1 -13%
Cc1ccc(N2CC(NC(=O)c3cccs3)CC2=O)cc1C (configuration not stated) -13.5%
Cc1cccc(NC(=O)c2ccc(-n3cnc4cccnc43)cc2)c1C -30%
CCc1ccc(C(=O)c2cn(CC(=O)Nc3ccc4c(c3)OCO4)c3ccc(OC)cc3c2=O)cc1 -16.1%
CC1=C(c2ccc(C)c(C)c2)S(=O)(=O)N=C1N1CCC(C(=O)N2CCC(C)CC2)CC1 -14.7%
Cc1ccccc1OCc1ccc(-c2nc(C#N)c(NCc3cccnc3)o2)o1 -9.16%
CCOc1cc(/C=C(\C#N)C(=O)NCC2CCCO2)ccc1O (configuration not stated) -11.9%
COc1ccc(OC)c(CNC(=O)C(C)n2c(C)c3cnn(-c4ccccc4)c(=O)c3c2C)c1 (configuration not stated) -1.53%
CCOc1ccc(NC(=O)C2CCC(CNS(=O)(=O)c3ccc(Br)s3)CC2)cc1 (configuration not stated) -18.1%
CCN(CC)C(=O)Cn1c(=O)nc(-c2ccccc2F)c2cc(Cl)ccc21 -7.96%
COC(=O)c1cnc(NCc2ccc(F)cc2)c2ccccc12 -12.1%
Cc1cc(F)ccc1S(=O)(=O)Nc1ccc2c(c1)CCCN2C(=O)c1cccs1 28.2%
COc1ccc(N2C(=O)C(CC(=O)Nc3ccc(F)cc3)N(Cc3ccc4c(c3)OCO4)C2=O)cc1 (configuration not stated) -11.3%
CCCNC(=O)N1[C@H](c2ccc(C)s2)[C@@H](C)C(=O)[C@@H](C)[C@@H]1c1ccc(C)s1 -12.2%
CC(C)c1ccc(OC(=O)c2cc(-c3ccc(Cl)cc3)on2)cc1 14.3%
COc1ccc(CC(=O)NCC(c2ccc(N(C)C)cc2)N2CCOCC2)cc1 (configuration not stated) -8.93%
Cc1ccc(-n2ncc3c(NCCCn4ccnc4)ncnc32)cc1Cl -12.4%
COc1ccc(-n2c(=O)c3sc4ccccc4c3n(CC(=O)Nc3ccccc3F)c2=O)cc1 -8.13%
O=C1c2[nH]nc(-c3ccccc3O)c2C(c2ccccc2F)N1Cc1ccncc1 (configuration not stated) -13%
NC(=O)COCCN1CCN(C(c2ccccc2)c2ccc(Cl)cc2)CC1 (configuration not stated) -17.4%
CCOC(=O)Cc1ccc(NC(=O)NCc2cccn2Cc2ccccc2)cc1 -13.2%
CC(C)C1CCC(C(=O)N[C@H](Cc2ccccc2)C(=O)O)CC1 (some centres not stated) -33.9%
Cc1oc(-c2ccc(Cl)cc2)nc1CN1CCC(C(=O)NCCCN2CCN(c3cccc(Cl)c3)CC2)CC1 -0.573%
Cc1ccc2c(c1)NC(=O)C(CC(=O)Nc1ccccc1Cl)O2 (configuration not stated) -8.73%
O=C1Nc2ccccc2C1(c1ccc(O)cc1)c1ccc(O)cc1 -0.221%
Cc1ccc(Nc2nnc(-c3ccc(C)c(S(=O)(=O)N4CCOCC4)c3)c3ccccc23)c(C)c1 -16.4%
CCc1nc2nc(C)cc(Nc3ccc(OC)cc3OC)n2n1 1.21%
CCC(Cc1ccccc1)NC(=O)Cn1ncc2c3ccccc3n(Cc3ccccc3)c2c1=O (configuration not stated) -6.66%
CCOc1ccc(C(=O)c2cn(Cc3ccc(Cl)cc3)c3cc(OC)c(OC)cc3c2=O)cc1 -8.89%
Cc1ccc(Cl)cc1N1CCN(C(=O)c2cc(S(=O)(=O)N3CCCC3)cn2C)CC1 -5.17%
Cc1cc(C)n2nc(SCC(=O)Nc3ccccc3C)nc2n1 -7.74%
Cc1ccc(C)c(CN2C(=O)c3ccccc3S(=O)(=O)c3ccc(C(=O)N4CCN(c5ccccn5)CC4)cc32)c1 -11%
CCCN1C(=O)C(Cc2nc3ccccc3c(=O)n2-c2ccccc2)c2cc(C)ccc21 (configuration not stated) -39.8%
CCc1cccc(N2C(=O)N(CC(=O)NCc3cccc(OC)c3OC)c3ccccc3S2(=O)=O)c1 -1.09%
COc1cc(NC(=O)CN2C(=O)COc3ccc(S(=O)(=O)N4CCCCC4)cc32)cc(OC)c1 -6.55%
COc1ccc(C)cc1NC(=O)NCc1ccc2c(c1)CCN2C(=O)c1ccccc1 -1.11%
Cc1ccc(NC(=O)Cn2c(=O)n(-c3ccccc3)c(=O)c3c4c(sc32)CCCC4)cc1 -17.8%
COc1ccc(C)cc1Nc1nc2cc(Cl)c(Cl)cc2nc1-n1nc(C)cc1C -16.2%
COc1ccc(C)cc1NC(=O)CSc1nc(=O)n(Cc2ccncc2)c2c1CCC2 -6.25%
C=Cc1ccc(CN2C(=O)N(c3ccc(CC)cc3)S(=O)(=O)c3ccccc32)cc1 12.4%
COc1ccc(C(=O)NCCc2sc(-c3ccc(Cl)cc3)nc2C)c(OC)c1 -36.8%
COCCNC(=O)c1ccc(CSc2nc3ccncc3n2Cc2ccccc2)cc1 -5.54%
O=C(CSc1ncc2c(n1)-c1ccccc1N(Cc1ccccc1)S2(=O)=O)Nc1ccccc1 -0.725%
CCOC(=O)COc1ccc(C)cc1C(=O)c1ccn2nc(-c3ccc(C)cc3)cc2n1 -7.65%
COC(=O)c1ccc(OCC2c3cc(OC)c(OC)cc3CCN2C(=O)C(C)C)cc1 (configuration not stated) -11.9%
CCOc1ccc(NC(=O)c2c(NC(=O)Cc3ccccc3)sc3c2CCC(C)C3)cc1 (configuration not stated) -11.4%
COc1ccc(OC)c(NC(=O)CN(C)S(=O)(=O)c2ccc3[nH]c4c(c3c2)CCCC4)c1 -8.79%
CCC(=O)N1CCc2cc(S(=O)(=O)CCC(=O)N3CCN(c4cc(C)ccc4C)CC3)ccc21 -9.98%
COc1cccc(NC(=O)CSc2nc3ccccc3n2C)c1 -9.84%
CCn1c(=O)cc(SCC(=O)NCCc2cc(OC)ccc2OC)c2ccccc21 -13.4%
Cc1nnc(N2CCC(C(=O)NC3CCCCC3)CC2)c2nn(-c3ccc(Cl)cc3)c(C)c12 -10.3%
CCOc1ccc(NC(=O)c2c(NCc3ccc(C)o3)sc3c2CCC(C)C3)cc1 (configuration not stated) -11.1%
CCOc1ccc(C(=O)NCC(c2ccc3c(c2)OCO3)N2CCN(c3ccccc3F)CC2)cc1 (configuration not stated) 4.17%
Cc1ccc(NC(=O)Cn2c(=O)n(Cc3ccco3)c(=O)c3ccc(C(=O)NC4CCCC4)cc32)c(C)c1 -6.65%
COCCCNC(=O)C1CCN(Cc2nc(-c3ccc(OC)c(OC)c3)oc2C)CC1 -0.683%
COc1ccc(Cn2nnc(C(=O)Nc3cc(OC)ccc3OC)c2N)cc1 8.41%
COc1ccc(OC)c(CCNC(=O)c2c(C)nn(-c3ccc(F)cc3)c2-n2cccc2)c1 -10.7%
O=C(c1cccc(Cl)c1)N1CCN(CCc2ccccn2)CC1 -1.93%
CCOc1ccc(NC(=O)Cn2nc(-c3ccncc3)ccc2=O)cc1 -14.7%
CCCCNC(=O)c1c(C)oc2ncn(CC(C)C)c(=O)c12 -12.7%
Cc1ccccc1OCC(=O)Nc1cc(-c2cccc(Br)c2)nn1-c1ccccc1 -12.1%
O=C(NCc1nc2cccnc2n1Cc1ccc(F)cc1)c1ccccc1C(F)(F)F -8.7%
COc1ccc(NC(=O)Cn2c(=O)n(CCc3ccccc3)c(=O)c3ccccc32)cc1 -9.94%
COc1ccc2nc(NC(=O)c3cc(=O)c4ccccc4o3)sc2c1 -11.1%
Cc1noc(-c2ccc(NCc3ccccc3)c([N+](=O)[O-])c2)n1 -5.89%
COc1cccc(CNS(=O)(=O)c2cc3c(cc2C)n(C)c(=O)c(=O)n3C)c1 -13.7%
COC(=O)c1c(N)n(-c2cc(Cl)cc(Cl)c2)c2nc3ccccc3nc12 21.2%
CCC(=O)N1CCc2cc(Br)cc(S(=O)(=O)N3CCCC(C(=O)NCc4ccccc4)C3)c21 (configuration not stated) -2.08%
Cc1noc(/C=C/c2ccccc2F)c1S(=O)(=O)N1CCC(C(=O)N(C)Cc2ccco2)CC1 -2.32%
Cc1ccccc1CN1C(=O)c2ccccc2Sc2ccc(C(=O)NCc3cccs3)cc21 -11.9%
COc1ccccc1CNCCSc1nnnn1C -2.61%
Nc1c(-c2nc(-c3ccncc3)no2)nnn1CC(=O)Nc1ccccc1 0.558%
COc1ccc(C(=O)N(Cc2ccco2)Cc2ccco2)cc1 -8.85%
COc1cccc(NC(=O)Cn2c(=O)n(-c3ccc(Cl)cc3)c(=O)c3sc4ccccc4c32)c1 -11.7%
CCOc1ccc(/C=C/c2nc3ccccc3n2S(=O)(=O)c2ccc(Br)cc2)cc1 -7.48%
O=C(Cn1c(=O)nc(-c2ccccc2)c2cc(Cl)ccc21)NCCc1ccc(Cl)cc1 -4.81%
COc1ccc(S(=O)(=O)NCC(c2ccco2)N2CCOCC2)cc1C (configuration not stated) -9.08%
COc1ccccc1N1CCN(S(=O)(=O)c2c(C)sc3ncn(CC(=O)Nc4ccccc4F)c(=O)c23)CC1 -10.8%
CCOc1ccc(NC(=O)CSc2nnc(CNC(=O)c3c(F)cccc3Cl)o2)cc1 -16.1%
CCc1ccc(-c2[nH]nc3nc(-c4ccc(OC)cc4)cc(C(=O)NCCc4ccc(OC)c(OC)c4)c23)cc1 -2.61%
CCc1ccc(NCc2cccn2-c2nnc(N3CCCCCC3)s2)cc1 -37.8%
CCN1CCN(c2ncc3c(n2)CCN(Cc2ccc(Br)s2)C3)CC1 -12.2%
COC(=O)c1ccc(Cl)cc1NC(=O)N(Cc1ccc(C)o1)C1CCN(C(C)=O)CC1 -10%
COc1ccc(C(=O)NCC2(N3CCN(C)CC3)CCCCC2)cc1 -14.2%
COc1ccc(C)cc1NS(=O)(=O)c1ccc2c(c1)n(C)c(=O)n2C -11%
CCC(CC)c1nn2c(=O)cc(COc3ccc(NC(=O)c4cccc(Cl)c4)cc3)nc2s1 -0.619%
CCC(C)NC(=O)c1ccc2c(=O)n3c(nc2c1)CCCCC3 (configuration not stated) -1.89%
Cc1ccc2c(c1)N(C(=O)NCc1ccccc1)CCO2 -17.8%
Cc1ccc(NC(=O)Cn2nnc3sc(-c4ccccc4)cc3c2=O)cc1Cl -9.29%
Cc1nnc2c(Nc3cccc(O)c3)nc3ccccc3n12 -14.8%
CCn1c(=O)c(=O)n(CC)c2cc(N3CCCCC3)c(NC(=O)c3cccc(F)c3)cc21 -19%
CCCN1Cc2cccc(C(=O)Nc3cc(C)cc(C)c3)c2C1=O -8.48%
CC(=O)Nc1ccc(C)cc1-c1nc2ccccc2n(CC(=O)Nc2cc(Cl)ccc2C)c1=O -11.3%
COc1ccc(NC(=O)Cn2c(=O)n(Cc3ccc(C(=O)NCc4ccccc4Cl)cc3)c(=O)c3ccccc32)cc1OC 1.25%

Source: PubChem BioAssay AID1159614 (National Center for Advancing Translational Sciences (NCATS), 2016)
